From publication PMC4336329 (PLoS ONE, 2015)
Out of some 310,000 compounds screened, about 14,000 (4.5%) showed an effect of 50% or more. The effect is printed as a negative number. This is one part of the list.

Target: human ether-à-go-go-related gene (hERG) potassium channel (human, UniProt Q12809)
Assay: primary screen, population patch clamp on CHO cells stably expressing hERG
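Also: peak tail current of the secondary pulse compared with the same well before compound.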

Chain of human ether-à-go-go-related gene (hERG) potassium channel (Q12809 whole entry, looked up): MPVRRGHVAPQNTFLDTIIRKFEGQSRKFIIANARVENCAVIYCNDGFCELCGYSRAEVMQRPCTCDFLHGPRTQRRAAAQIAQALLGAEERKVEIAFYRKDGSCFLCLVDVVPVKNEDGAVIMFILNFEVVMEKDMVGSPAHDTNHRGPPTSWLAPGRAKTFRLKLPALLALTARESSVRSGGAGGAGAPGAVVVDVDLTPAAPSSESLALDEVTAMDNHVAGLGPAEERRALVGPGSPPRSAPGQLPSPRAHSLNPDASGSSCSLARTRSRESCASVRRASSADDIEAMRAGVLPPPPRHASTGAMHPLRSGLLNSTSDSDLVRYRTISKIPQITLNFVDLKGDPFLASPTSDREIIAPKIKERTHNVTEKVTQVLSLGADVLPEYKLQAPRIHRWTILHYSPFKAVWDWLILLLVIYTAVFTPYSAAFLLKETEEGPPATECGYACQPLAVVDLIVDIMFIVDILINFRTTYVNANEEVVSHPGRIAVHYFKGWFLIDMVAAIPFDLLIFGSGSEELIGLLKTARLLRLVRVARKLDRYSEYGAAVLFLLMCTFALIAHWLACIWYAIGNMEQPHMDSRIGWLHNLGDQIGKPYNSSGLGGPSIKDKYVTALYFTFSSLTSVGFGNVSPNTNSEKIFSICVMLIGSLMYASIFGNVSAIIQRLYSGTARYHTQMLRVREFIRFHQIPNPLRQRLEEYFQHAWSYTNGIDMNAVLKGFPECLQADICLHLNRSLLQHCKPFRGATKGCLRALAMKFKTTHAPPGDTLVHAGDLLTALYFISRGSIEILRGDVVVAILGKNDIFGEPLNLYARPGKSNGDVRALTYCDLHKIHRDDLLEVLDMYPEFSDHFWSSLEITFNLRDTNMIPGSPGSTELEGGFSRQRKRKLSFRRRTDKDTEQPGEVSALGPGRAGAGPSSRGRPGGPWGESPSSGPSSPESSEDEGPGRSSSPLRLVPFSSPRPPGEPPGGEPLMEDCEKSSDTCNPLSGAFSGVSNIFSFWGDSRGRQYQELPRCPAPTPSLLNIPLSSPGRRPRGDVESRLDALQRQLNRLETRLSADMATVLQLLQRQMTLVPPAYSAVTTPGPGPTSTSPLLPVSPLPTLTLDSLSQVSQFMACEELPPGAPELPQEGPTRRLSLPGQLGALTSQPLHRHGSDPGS

Going from COc1ccc(-c2nnn(CC(=O)N3CCOCC3)n2)cc1 to COc1ccc(C(=O)/C=C/c2cn(CC(O)CN3CCOCC3)c3ccccc23)cc1 (stereo not shown), the “hERG current change (%, negative = inhibition) at 10uM” value rises from 1.99% to 3.55%.

First: O=C(COC(=O)c1c(Cl)ccc(Cl)c1Cl)NC(=O)NCc1ccccc1
Second: COc1cccc(NC(=O)CN(Cc2ccccc2)S(C)(=O)=O)c1
The “hERG current change (%, negative = inhibition) at 10uM” value of the first is lower: -5.52% for the first, -0.578% for the second.

First: COc1ccc(OC)c(CN2CCN(C(=O)c3ccc(S(=O)(=O)Nc4ccccc4F)cc3)CC2)c1
Second: CCOC(=O)C1CCN(C(=O)c2ccc(S(=O)(=O)Nc3ccccc3OC)cc2)CC1
The “hERG current change (%, negative = inhibition) at 10uM” value of the first is higher: -25.3% for the first, -35.8% for the second.

Going from C[C@H]([C@H](O)c1ccccc1)N(C)C(=O)CN to COc1ccccc1CN(C)C(=O)c1ccccc1SCC(=O)N1CCCC1, the “hERG current change (%, negative = inhibition) at 10uM” value falls from 17.9% to 1.36%.

Going from CC(=O)N1CCN(c2ccc(NC(=O)C(c3ccccc3)c3ccccc3)cc2)CC1 to COc1ccc(-c2cc(C(=O)N3CCN(c4ccccc4)CC3)c3ccccc3n2)cc1OC, the “hERG current change (%, negative = inhibition) at 10uM” value falls from -2.12% to -7.87%.

Going from COc1ccc(C2C(C#N)=C(C)NC3=C2C(=O)CC(C)(C)C3)cc1 (stereo not shown) to COc1ccc([C@H]2CC(=O)C=C(/C=C/c3ccc(C(F)(F)F)cc3)C2)cc1, the “hERG current change (%, negative = inhibition) at 10uM” value falls from -5.29% to -62.9%.

Going from CCCCCC(=O)Nc1cccc(C2=NOC3(C2)C[C@@H](C(N)=O)N(C(=O)c2cc([N+](=O)[O-])cc([N+](=O)[O-])c2C)C3)c1 (stereo partly shown) to CN(C)C(=O)c1ccc(NC(=O)COC(=O)c2cc(S(=O)(=O)N(C)C)ccc2N2CCCC2)cc1, the “hERG current change (%, negative = inhibition) at 10uM” value falls from 5.02% to -15.9%.

Going from O=C(Nc1ccncc1)c1ccc(Cl)c([N+](=O)[O-])c1 to O=C(c1ccc(S(=O)(=O)Cc2ccccc2Cl)c([N+](=O)[O-])c1)N1CCOCC1, the “hERG current change (%, negative = inhibition) at 10uM” value rises from -1.86% to 6.77%.

First: COc1ccc(C(=O)Nc2c(-c3cccs3)c(=O)c3ccccc3n2C)cc1
Second: Cc1ccc(OCC(=O)N/N=C\c2cn(Cc3ccccc3)c3ccccc23)cc1C
The “hERG current change (%, negative = inhibition) at 10uM” value of the first is lower: -1.39% for the first, 5.36% for the second.

Compared with COCCC(=O)N1CCCC(C(=O)c2ccccc2SC)C1 (stereo not shown), COCCN1CCCC(CNCc2cn(C)nc2-c2ccc(Oc3ccccc3)cc2)C1 (stereo not shown) is lower in “hERG current change (%, negative = inhibition) at 10uM” value: 13.1% for the first, -33.2% for the second.

First: N#CC(C#N)=NNc1ccc(S(=O)(=O)N2CCCCC2)cc1
Second: CCCOC(=O)c1ccc(NC(=O)c2cccc(S(=O)(=O)N3CCN(C(C)=O)CC3)c2)cc1
The “hERG current change (%, negative = inhibition) at 10uM” value of the first is lower: -26.2% for the first, -20.8% for the second.

Compared with COC(=O)C12CCC(C)(c3nc4ccccc4nc31)C2(C)C (stereo not shown), Cc1ccc(-c2nnn(CC(=O)N(CC(=O)NC(C)C)c3cnc4ccccc4c3)n2)o1 is lower in “hERG current change (%, negative = inhibition) at 10uM” value: 1.05% for the first, -0.922% for the second.

Going from NS(=O)(=O)c1ccc(N2CCN(CCOc3ccc(Cl)cc3)CC2)nc1 to Cc1ccc(S(=O)(=O)n2cnc3ccccc32)cc1, the “hERG current change (%, negative = inhibition) at 10uM” value rises from -69.8% to 8.06%.

Compared with O=C(N/N=C/c1ccc(-c2cccc(C(F)(F)F)c2)o1)c1cccc(F)c1, COc1cccc(NC(=O)Nc2cc(Cl)ccc2C)c1 is higher in “hERG current change (%, negative = inhibition) at 10uM” value: 7.1% for the first, 35.1% for the second.

Going from COc1ccc(CN(C(=O)c2cnccn2)C(C(=O)Nc2ccc(F)cc2)c2ccccc2)cc1 (stereo not shown) to O=C(NC1CCCC1)C(c1cccnc1)N(C(=O)c1csnn1)c1ccccc1 (stereo not shown), the “hERG current change (%, negative = inhibition) at 10uM” value rises from -68.2% to -13.8%.

Compared with CCn1c(SCC(=O)Nc2nc(C)c(C(=O)OC)s2)nnc1C(C)C, CCc1ccc2[nH]c3nc(SCC(=O)NNC(=O)c4ccc(C(C)(C)C)cc4)nnc3c2c1 is lower in “hERG current change (%, negative = inhibition) at 10uM” value: 0.0754% for the first, -1.88% for the second.

Compared with CCSC(=Nc1ccccc1)Nc1ccccc1, O=[N+]([O-])c1ccccc1CNC(Cc1ccccc1)c1ccccc1 (stereo not shown) is lower in “hERG current change (%, negative = inhibition) at 10uM” value: 7.89% for the first, -11.3% for the second.

First: Cc1cc(C)nc(OC(C(=O)O)C(OCCC(C)C)(c2ccccc2)c2ccccc2)n1 (stereo not shown)
Second: CCOC(=O)CSc1nnc(CSc2nc3ccccc3c(=O)[nH]2)n1-c1ccccc1
The “hERG current change (%, negative = inhibition) at 10uM” value of the first is higher: 6.26% for the first, -2.87% for the second.

First: CCC(C)NC(=O)Cn1c(=O)n(-c2ccccc2)c(=O)c2ccc(C(=O)NCc3ccco3)cc21 (stereo not shown)
Second: COC(=O)c1ccc(CSc2nnc(CNC(=O)c3ccc(OC)cc3)o2)o1
The “hERG current change (%, negative = inhibition) at 10uM” value of the first is lower: -2.04% for the first, 2.63% for the second.

Compared with O=C(CSc1ncn[nH]1)Nc1ccc(S(=O)(=O)Nc2ncccn2)cc1, Cc1cccc(CNS(=O)(=O)c2ccc(-c3ccc(=O)[nH]n3)s2)c1 is lower in “hERG current change (%, negative = inhibition) at 10uM” value: 57% for the first, -11.7% for the second.

Compared with CN1CCN(C2CCN(Cc3ccc(O)c4ncccc34)CC2)CC1, O=C(Nc1ccc(Cc2ccc(NC(=O)N3CCOCC3)cc2)cc1)N1CCOCC1 is higher in “hERG current change (%, negative = inhibition) at 10uM” value: 5.17% for the first, 9.75% for the second.

Going from Cc1ccc(NC(=O)[C@@H](CC(C)C)NC(=O)[C@@H]2Cc3ccccc3CN2)cc1 to CCC(C)c1ccccc1N1CC(C(=O)Nc2cc(S(=O)(=O)N3CCOCC3)ccc2OC)CC1=O (stereo not shown), the “hERG current change (%, negative = inhibition) at 10uM” value rises from -26.9% to -4.27%.

Going from CCOC(=O)C(C)n1cnc2c(nnn2Cc2ccc(Cl)cc2)c1=O (stereo not shown) to CCOC(=O)Cc1csc(SCC(=O)Nc2cc(Cl)ccc2Oc2ccccc2)n1, the “hERG current change (%, negative = inhibition) at 10uM” value rises from -23.4% to -4.26%.

Going from CCOc1ccc(/C(O)=C2/C(=O)C(=O)N(CCCn3ccnc3)C2c2cccs2)cc1Cl (stereo not shown) to COc1ccc(CN(C(=O)c2cccs2)c2nccs2)cc1OC, the “hERG current change (%, negative = inhibition) at 10uM” value falls from 5.43% to -10.9%.

Going from CCOC(=O)c1c2n(c3ccc(O)cc13)CCCCC2 to CCn1c(=O)n(CC)c2cc(N3CCCC3)c(NC(=O)c3cccc(OC)c3)cc21, the “hERG current change (%, negative = inhibition) at 10uM” value falls from 8.86% to -8.65%.

Going from COc1ccc(NC(=O)C23CC4CC(C2)CC(n2cnc(Br)n2)(C4)C3)c(OC)c1 to Cc1cccc(Cn2ccc(N)n2)c1, the “hERG current change (%, negative = inhibition) at 10uM” value rises from -23.4% to 11.7%.
